The values that follow come from the supplement of paper PMC9446081.

Molecules are shown by their SMILES. Among all 39,000 compounds or so, about 220 (0.56%) showed activity. The list shows a part of the results.
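Note: static incubation at 37 °C against the wild-type strain, values averaged over two biological replicates.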

The test system of the assay is Escherichia coli K-12 BW25113. In words: relative growth (OD600 normalised to plate interquartile mean) (fraction); higher = less growth inhibition, active = 0.2 or less. The following applies: 50 µM; LB; incubation time: overnight (16-24 h).
For the compound `C[C@@H]1CN([C@@H](C)CO)C(=O)Cc2cc(NC(=O)Nc3cccc4ccccc34)ccc2O[C@H]1CN(C)S(=O)(=O)c1cccs1`, the relative growth was inactive: 1.04.

Regarding `COC(=O)[C@H](Cc1ccc(-n2cc(CCC(=O)NO)nn2)cc1)N[C@H](/C=C/C1CC1)[C@@H](O)Cc1ccccc1`, the relative growth is inactive: 0.985.

With `COc1cccc(OC[C@@H](O)CN(CCO)CCO)c1`, the relative growth is inactive: 0.98.

Turning to `Cc1ccc(Nc2nc(-c3ccc(C)cc3)c(C)s2)cc1`, the relative growth was inactive: 1.01. Take `CN1C(=O)c2cc(NC(=O)C3CCOCC3)ccc2OC[C@@H]2O[C@H](CC(=O)NCc3ccccc3F)CC[C@@H]21`: the relative growth is inactive: 0.996. As to `C[C@H]1CCCCO[C@H](CN(C)S(=O)(=O)c2ccc(F)cc2)[C@@H](C)CN([C@@H](C)CO)C(=O)c2cc(NC(=O)C3CCCCC3)ccc2O1`, the relative growth was inactive: 0.992. `Cn1cnc(S(=O)(=O)N2C[C@@H](O)COC[C@@H]3O[C@H](CC(=O)NC4CCCC4)CC[C@H]32)c1`: the relative growth is inactive: 0.952. In the case of `Cc1noc(C)c1S(=O)(=O)N(C)C[C@H]1Oc2ccc(NC(=O)CCC(F)(F)F)cc2CC(=O)N([C@@H](C)CO)C[C@@H]1C`, the relative growth was inactive: 0.979.

Consider `C[C@@H]1CCCCO[C@@H](CN(C)Cc2ccccc2)[C@@H](C)CN([C@H](C)CO)C(=O)c2cc(NS(=O)(=O)c3ccccc3)ccc2O1`, for which the relative growth was inactive: 0.961. Regarding `COc1ccc(NC(=O)Nc2ccc3c(c2)C(=O)N([C@@H](C)CO)C[C@@H](C)[C@@H](CN(C)C(=O)C2CCCCC2)OCCCC[C@H](C)O3)cc1`, the relative growth was inactive: 0.999. Consider `C=C(C)C(=O)NC(=O)/C=C/C`, for which the relative growth was inactive: 0.962.

Turning to `C[C@@H]1COCCS(=O)(=O)N1C`, the relative growth is inactive: 1.01.

In the case of `C=CCC[C@@H](Cc1ccc(F)cc1)C(=O)O[C@H](CNC(=O)[C@@H](CC=C)CC(=O)N[C@H](CO)Cc1ccccc1)c1ccccc1`, the relative growth is inactive: 1.03. As for `Cc1cc(C)n(C)c(=O)c1C(=O)O`, the figure is inactive: 1.03; as for `CC(=CCO)CCC(C)CCCC(C)CCCC(C)C` (centres undefined), inactive: 1.04. For `O=C(CCCCCNC(=O)OCCCCO[C@H]1C[C@@H](c2coc3ccccc3c2=O)C=C(C(=O)N2CCOCC2)O1)NO` the value was inactive: 0.995. As for `CNC(=O)[C@H]1O[C@@H](n2cnc3c(NCc4cccc(I)c4)nc(Cl)nc32)[C@H](O)[C@@H]1O`, the figure is inactive: 1.01; as for `CC(C)NC(=O)Nc1ccc2c(c1)CC(=O)N([C@H](C)CO)C[C@H](C)[C@@H](CN(C)S(=O)(=O)c1ccc(Cl)cc1)O2`, inactive: 0.998. For the compound `O=C(C[C@H]1CC[C@H](NC(=O)Cc2ccccn2)[C@@H](CO)O1)NCCc1ccncc1`, the relative growth was inactive: 1.
